In the supplement of paper PMC3334620:
Whole data set: some 33,000 sequences, median “E-score (-0.5 to 0.5)” near -0.021, cut for the highest 2% near 0.32. The list shows a part of the results.

Each sequence was assayed against T1, Zap1 (UniProt P47043) (assay: PBM E-score (8-mer binding enrichment) (E-score (-0.5 to 0.5)); higher = stronger / more preferred TF binding; most listed sequences are background and not binding sites). Details: protein concentration: 200 nM; construct: GST-full length.
T1 sequence: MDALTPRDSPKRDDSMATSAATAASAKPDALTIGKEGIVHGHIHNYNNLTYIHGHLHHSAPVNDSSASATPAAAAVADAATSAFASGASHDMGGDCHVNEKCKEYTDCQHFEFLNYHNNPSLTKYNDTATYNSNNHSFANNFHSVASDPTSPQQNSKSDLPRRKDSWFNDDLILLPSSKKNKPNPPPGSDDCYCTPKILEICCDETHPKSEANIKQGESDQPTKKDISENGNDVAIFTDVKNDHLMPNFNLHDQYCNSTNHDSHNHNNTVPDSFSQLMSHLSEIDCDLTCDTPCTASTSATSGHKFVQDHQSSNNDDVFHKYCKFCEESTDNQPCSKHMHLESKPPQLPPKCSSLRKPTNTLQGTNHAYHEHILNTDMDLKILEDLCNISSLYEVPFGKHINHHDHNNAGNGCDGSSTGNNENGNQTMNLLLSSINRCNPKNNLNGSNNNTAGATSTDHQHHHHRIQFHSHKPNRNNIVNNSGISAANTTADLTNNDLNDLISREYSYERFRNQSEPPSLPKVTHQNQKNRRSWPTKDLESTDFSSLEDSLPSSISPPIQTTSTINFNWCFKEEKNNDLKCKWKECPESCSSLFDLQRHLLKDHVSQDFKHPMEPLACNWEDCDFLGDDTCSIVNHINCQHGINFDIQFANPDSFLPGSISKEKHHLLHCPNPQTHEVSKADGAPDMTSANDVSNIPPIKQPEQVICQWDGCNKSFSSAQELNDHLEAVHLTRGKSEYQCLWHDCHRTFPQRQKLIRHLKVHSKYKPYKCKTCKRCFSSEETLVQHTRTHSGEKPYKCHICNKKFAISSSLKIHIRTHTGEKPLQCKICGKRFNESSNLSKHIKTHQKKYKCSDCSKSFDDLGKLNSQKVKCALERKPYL
Outline: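 GST-tagged yeast TFs (full-length or DNA-binding domain) were made by PURExpress in vitro transcription/translation and applied at about 100-200 nM to universal all-10-mer Agilent arrays. The arrays were made double-stranded by primer extension, on fresh or once-stripped slides. Bound protein was detected with fluorescent anti-GST, and scans were normalised with masliner. Each ungapped eight-base word, pooled with its reverse complement, received an E-score (modified Wilcoxon-Mann-Whitney statistic) from the Universal PBM Analysis Suite.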

Row | Sequence | PBM E-score
1 | GGCCCCAA | 0.107
2 | CAGGTATA | 0.16
3 | AAGATAGA | 0.0134
4 | AACGCTGG | -0.174
5 | ACGTATTC | -0.0689
6 | AGCCGAAT | -0.00941
7 | GCTTCGCC | -0.31
8 | CCTTATCG | 0.158
9 | AGGTACGC | 0.107
10 | AGTAATGC | -0.0647
11 | AACCGAGA | 0.195
12 | CTAGCGGA | -0.16
13 | GTAAACCA | 0.138
14 | CGAGGCTC | -0.182
15 | CACGCGGG | 0.0265
16 | ATTCGTAG | -0.0712
17 | CTCCCCAC | -0.136
18 | ATTTTCAG | 0.06
19 | GCTAGCCC | -0.228
20 | TCGACAAA | 0.0744
21 | ATCCTCTA | -0.118
22 | GGTAAGAA | -0.00627

Row | Sequence | PBM E-score
23 | CATGATGC | -0.127
24 | AACGTCGG | -0.15
25 | ATAGCTTA | -0.0241
26 | ATGGCTAG | -0.0721
27 | CGTGTGCC | 0.00438
28 | ATGGCGCG | -0.0417
29 | GCAGCCCC | -0.0536
30 | AGGAGACC | -0.0191
31 | CCGTGCGC | -0.0384
32 | ACCTTACG | 0.226
33 | GGATATTA | 0.156
34 | CAACTCAG | 0.0151
35 | AGATGCAT | -0.158
36 | GAGGAGGA | -0.316
37 | CCCTGCCG | -0.0398
38 | AATTATTG | 0.0454
39 | ACCGGTAA | 0.286
40 | GTGTCGTA | 0.0847
41 | AGCCAATG | -0.0742
42 | ACCGTTAG | 0.139
43 | CCTATTAA | 0.15
44 | AATATGAC | -0.0299

Row | Sequence | PBM E-score
45 | CTCTCAGA | -0.229
46 | ACTCGTGG | 0.0689
47 | CAGATAAC | 0.308
48 | GCCGTACA | 0.014
49 | CCCGCATA | 0.16
50 | AGAGAGGA | -0.245
51 | CTTAAGCA | -0.0209
52 | ATTTCTGC | 0.0333
53 | GTGAGAAA | 0.0979
54 | CCGCCAAC | -0.121
55 | CCACGGGG | 0.0374
56 | AAAGAGTT | -0.0729
57 | GTTAGAAA | -0.062
58 | AAACAACC | 0.313
59 | AAAGTCCG | -0.158
60 | ACCTCCAT | 0.168
61 | CCCGTTCG | -0.0827
62 | AGACTGAA | -0.0644
63 | AACTTGGT | 0.143
64 | CACGAGAC | -0.0591
65 | CCGAACTA | 0.133
66 | ATTCAGAG | -0.1

Row | Sequence | PBM E-score
67 | GTCGGTCA | -0.173
68 | ACGCCTAG | -0.265
69 | AAACGGTT | 0.213
70 | CGGGTCAC | 0.374
71 | CGTATCAG | -0.0356
72 | AGAATCGA | -0.101
73 | CAACTAGC | 0.0515
74 | GTGCGTCA | -0.155
75 | CTTTTAAC | 0.0885
76 | GTGCCGTA | 0.114
77 | GGTACGCA | 0.141
78 | CGGACAGA | -0.0523
79 | CCCGGACA | 0.031
80 | TAACGTAA | 0.0847
81 | CTTATGTA | -0.0766
82 | ATCCAGCC | -0.15
83 | ACACGCGA | -0.132
84 | TAGATTCA | -0.0579
85 | CTGCTAAA | -0.0363
86 | GCGGGACA | -0.167
